Source: the supplement of paper PMC12632987
Whole data set: some 2,300 sequences, median “median log2 fold change of GCK-ALFA target abundance (FLAG IP / Myc IP barcode read proportion)” near 0.095, cut for the lowest 2% near -0.47. Some of the results follow.

B1: LC3A_3_1595 (protein)
chain: MEELVEEALERLRAAGLSEAVLEAARELLEALAERGYEEAIKELTEQLLELKDAPEELLVDMLKELLEIVETEDLSEEEIIEKIKELARLAKNESEIEEL
B2: LC3A_28_990 (protein)
chain: SANQAAADAFLAAARAAAAAGEATTLVLPVSKDATQADIDYIVDALREAAEVLAGVPGASIIIDLEAGVAQEHIDKLADAAEEVEERYPNVTVVIALDED
B3: LC3A_147_445 (protein)
chain: VKVEVTIGVLMKNKPEVGDELVEKLRETAEAAGAEVEVEVEREKIDENTVYLLIKLTLTTETREAAEALANKVIDTVEEFAEKHKDEILGYIISVEISEA
B4: LC3A_28_819 (protein)
chain: SGAEETIEKVKKQAEEAKNSKEDVLIEVDVSGDITVEEAERLMEVVREEAKELAKKHKVYIVINFTEPVSQEVLDLISDKADEIEEEIPNVSVIIALPEE
B5: LC3A_59_2029 (protein)
chain: SAFFEAVAAEIRANKDDIEALARTILDGLEAVKDDPEALERLKAAIVATLVELGLLSRELAEELMEEAEEIVKTLEDREEALAAILEELRVLLNEEEIEE
B6: LC3A_3_1909 (protein)
chain: AEEKIEELRKLAKELGHSEEVIELAEKAAELLLSVGNEEGFELLKEAVKALASLSEEDQLAFLKDLLEELEKNKNDKEKQLEAAREFLRLAKNAAEIIEI
B7: LC3A_28_763 (protein)
chain: MSIEEEVEEAIKKAKEAKKEGKETVITIKVPAGATQEDVDIVIEGMEEIAEITKDMKRTTIIIDIEAGVPQENIDRLLDHGEEIEKKYPNVTVIFALDED
B8: LC3A_127_210 (protein)
chain: EKEELLKKGIELAEEALKAAQEIPKKGEEALKKAEELLKELIKVLAKLPELKEALEDAKQALEQAKEIPKLDEAAKEEAIEQIEMILEGIRIDLELALLK
B9: LC3A_28_1120 (protein)
chain: STAEEIIKKAREQVEAMIASGEEEVIEVEIPGSLSQEEVERVAKEVAKLVAEAAKKVKVNLVIDLDASVSQEKIDIIADIAEELEKAYPNVNVIIALEEK
B10: LC3A_147_461 (protein)
chain: KIYEVTLDVLVKNLTEEIKKFFEELAEEIKKKVPNAKVELKFEQDPENPNETLITLTVTVETKEDAEKILDIVDEKLDEFEKKFGDNIIASMISIEEIEE
B11: LC3A_28_1075 (protein)
chain: SEVEEENEKILKEAKEAREKGEPAVITIEIGEEDTEEDIEKKLETIREVAEILKDVKGAAIIIDLEGELALSRLDEVAELAEELEKKYPNLTVIIALDDE
B12: LC3A_147_451 (protein)
chain: KLYEITVDVLFKNDPELAEEVEEEIRAIAEKHGGEVEVEREEEQETPTTTLYYVRVTIKLEDREKALAAEDEISALLDRVAEEHPEKFLGSAISIEEIEV
B13: LC3A_3_1613 (protein)
chain: MEELIKENLERLKAAGFSEKVIEAARKVLEALAERGYEEAMETLTEKLLELKDVDEELIIETLEEILRKVEEEDLSEEEVIKVIEEEFRVARLESEIEEL
B14: LC3A_3_1356 (protein)
chain: MKELIEKALERLRKAGFSEEVLKAAREAFEALAEQGHEEGIERLTEALLKHKDAPEETLLRALENLLRELKENPNLTQEEVEELIKLVDSELAIEELEEE
B15: LC3A_3_1846 (protein)
chain: MEEILERALALLEELGRSPEVRAAARALLEALRERGYEEAAEVLLEKLEELEDVSDEILLAMLEELLRLVTEERLSEEETIEAIEELARTALNESEIEEL
B16: LC3A_59_2031 (protein)
chain: DAEIAAYVAALRAAKDDEEAMARIILDGFREFKDDPEKLAALKAALQATLVELGLLSPELAAELLDEAEEIVKTLEDEEEALKEVLRALRVALAEEEIEE
B17: LC3A_28_897 (protein)
chain: MSALETAEKALEEVKKAVEEGNQEPLVLEVKAPSTEEDTEKLIELLEKIAEEASKLKGVTIIIDIDESVSEENRDRLIDKAEELEEKYPNVTVIIALPES
B18: LC3A_free_15_2129 (protein)
chain: AEVEKLKKEIAEKFREIADLLLEAGELLSAEDTKKLIDLLDEAYDAFFESPELALEKVKELAKYLEELKKKKPEAKEALEKLLEEVKKLAEALKKLIEAE
B19: LC3A_132_323 (protein)
chain: SEEKAKKLKEEILKLIEEAEKNIDNLEKVEELVKKIRELAKEAKKELSPEEVAEIFDEAADKADEASLKALEAGKEDVALLLDGLSVELAAESIRAEEKI
B20: LC3A_23_608 (protein)
chain: KYLITADIGLVASPEEAAAAEARARATLAAFLAKHADKIVESRLEVEREALPDGTTLLLIRLEIVVDVSEEEAKAIAEELETALSEALPDAVISVSVEKL
B21: LC3A_3_1808 (protein)
chain: MEERLEEVIKLLKEAGHSEETIKAFLEAAEALKEKGYEEALETLLELARELVDLPSELLLEMFEDVLELVETSDDSEEEITERIREIASTYRHEAEIEEL
B22: LC3A_28_1058 (protein)
chain: MSIEEQLEKALEEAKEAVKKGEEALVELKINKDSTEEDVEKVLETMKEIAELTKDLPSVSIVVDVDHENKEEVTKKVSELGDELEKKYPNVTVIIALSEE
B23: LC3A_78_2087 (protein)
chain: KKKAIIAHTPEAKEEAEREAEKLKETYEVTLVDISELEKELEKAKDYEEVLVIIHAKDLDTVLKNIEKVKKIFKDYKQSEIIEIDEETGIYTGIVYLEKK
B24: LC3A_3_1423 (protein)
chain: SEELLKEAEEVLKEAGLSEEAIEAVLRLIKKAIEAGALEEVEELIEVLKEAKDVSSEEVLEAAEEALRRIEEEGVPIEEALKYFISELRVLILEKEIEEL
B25: LC3A_127_170 (protein)
chain: KLRELLEKLREVLEEALELLDEPDYDLEELEKLLEEAEKLAKEILELDPRAEPLLEDVKQAKELLKQLKKASPEEQEELREQLSMVLDGALIEVDLLLLR
B26: LC3A_3_1430 (protein)
chain: AEEILEEAREVLEEAGFDEETREAVLELLELALEAGEFEEAEELIEELKEAENVDSERVLEAAEEALRKIKEEGVPIKEALEEFIEELRVLRLEEEIEEL
B27: LC3A_28_1318 (protein)
chain: GSIEAELARARAEADAAAAAGEDILLEVKVTGSTTLEEALALMEELERIAERYAPTHKVSIVIDVDGGVSQEVIDAIADKGEEIEERYPNVTVIIALDEN
B28: LC3A_28_1138 (protein)
chain: SEIVEKAKKQIEEDAEADKNEKDVLLNVTLTGSITVEEAKEVMEIVEEKVEELKDKEKIYVVVTAEEPISQEVLDTITEKAEEIEKKFPNVSVIIALPED
B29: LC3A_free_39_2265 (protein)
chain: SAAAKAAALAKLKELAAKASPKVKAAINALADRIKDNLEALEKVTKLLEEALKKGPKVVDIFGQIAQDAVERIDAGTPVEEAIAELEKLSTAAIEIEEID

Target: MAP1LC3A, Q9H492
Test: median log2 fold change of GCK-ALFA target abundance (FLAG IP / Myc IP barcode read proportion) (log2 ratio); each designed protein is fused to an ALFA-tag nanobody in HEK293 cells to bring the named protein to FLAG-tagged glucokinase (GCK); Myc marks an untargeted standard; higher = target protein stabilised (more abundant)
Details: target protein: 3xFLAG-MCP-GCK-ALFA reporter; HEK293 landing pad (RPLP)
In short: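 An ALFA-nanobody-fused binder library was recombined into HEK293 landing-pad cells and induced with 2 μg mL^−1 doxycycline. Cells were transfected with a plasmid expressing a FLAG-tagged target and a Myc-tagged standard. After 48 h, lysates underwent anti-FLAG and anti-Myc immunoprecipitation, and circular RNA barcodes were reverse transcribed, amplified and sequenced. Target abundance is the per-binder median log2 ratio of FLAG to Myc barcode read proportions. Barcodes needed ≥10^−7 proportion in both replicates, binders ≥3 barcodes per replicate, and a 10^−6 pseudocount was added; the two replicates were pooled.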

Row | Binder | median log2 fold change
1 | B1 | 0.219
2 | B2 | 0.218
3 | B3 | -0.265
4 | B4 | -0.287
5 | B5 | 0.204
6 | B6 | 0.329
7 | B7 | -0.0857
8 | B8 | 0.238
9 | B9 | -0.138
10 | B10 | -0.0762
11 | B11 | -0.0901
12 | B12 | -0.235
13 | B13 | 0.22
14 | B14 | 0.194
15 | B15 | 0.152
16 | B16 | 0.324
17 | B17 | -0.276
18 | B18 | 0.141
19 | B19 | 0.243
20 | B20 | -0.438
21 | B21 | 0.0777
22 | B22 | -0.699
23 | B23 | -0.366
24 | B24 | 0.28
25 | B25 | 0.086
26 | B26 | 0.0453
27 | B27 | 0.0847
28 | B28 | -0.247
29 | B29 | 0.279
